# Article PMC10726135
# Some of the results follow. At the low end of the ranking the order means little. The protein was read in a cell extract, so binding may be indirect.
# Biological target: T1, HNF4alpha2 (COS-7 nuclear extract) (UniProt P41235)
# T1 sequence: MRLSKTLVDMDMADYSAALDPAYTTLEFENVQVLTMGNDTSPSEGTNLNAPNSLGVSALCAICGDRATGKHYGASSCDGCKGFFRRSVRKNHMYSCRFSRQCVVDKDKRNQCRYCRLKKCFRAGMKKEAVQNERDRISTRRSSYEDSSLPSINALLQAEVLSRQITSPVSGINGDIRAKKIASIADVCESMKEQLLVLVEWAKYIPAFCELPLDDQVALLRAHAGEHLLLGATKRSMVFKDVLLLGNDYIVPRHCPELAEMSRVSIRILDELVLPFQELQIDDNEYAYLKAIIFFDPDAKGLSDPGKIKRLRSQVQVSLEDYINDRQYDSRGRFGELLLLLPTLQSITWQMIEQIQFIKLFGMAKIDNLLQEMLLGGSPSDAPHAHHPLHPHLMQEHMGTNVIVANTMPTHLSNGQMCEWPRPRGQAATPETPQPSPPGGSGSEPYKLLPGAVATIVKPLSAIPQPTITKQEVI
# Test: protein-binding microarray
# Details: COS-7 nuclear extract on double-stranded Agilent 4x180k PBM; binding buffer, salt, pH and temperature not given; high values mean tight binding; double strand, one strand shown; sequences stand for … in …GCCTAGGGAGATTAGAGTATCGGTCGA
row,Sequence,binding signal (log2 normalized intensity)
1,AGAAGTGAAAAGTCGTTTTCAGTGTTTCTT,1.19
2,TCTTTGCACTTGATGTTCCCCCTCCCTGGA,4.59
3,ACTTTGGTCTTATTACTAAGTGAGAAAAGA,1.19
4,AATGGCTCCACCAGTCAGTCAGTGAGACGT,-0.839
5,CCTTTTTGGAATGTGTTTGCATGACTCATA,1.77
6,CCCCTCCCTCCGCAACCTTTACTCCTTGTG,3.68
7,ATGAAGTCAAACAAAAGAAAATGTGCCCTT,2.45
8,TGTACCCAGCACTGTCAGCAGGGGGATCCA,-1.2
9,ATCTTACAGGCTTATACGTGGAAGAAACTC,0.191
10,GGATCAGAGACACGATGTTCTTGCCAAGTC,-0.997
11,GGCATTGGAGATATGATAGCTGACAAGCAA,-1.15
12,AAAATTCCCCAGGAGGAGATAAGATCAGTA,-0.13
13,CATCAAATCCTCGGAAGACGCACCTCTGCA,-1.11
14,CCCTCCCTCTTCCCTCATATAATTTACATA,2.23
15,GAAAGTAAGTGCACAGCCAGAACTGAGCCC,-1.23
16,TTCTTGGGCAAGAAAGGGGTCAGCAAAAAT,1.24
17,GTCAGCCCTGCCATCTTGTGGCCATGCTTA,-0.96
18,TTAGCCAGGATCAGATTTGATAGCTGGGCT,-1.17
19,TTTCACTGCCTATCTCCTATGAGCCAAACA,-1.24
20,CGCTCCGCGAGGTGAGCCATTGGCTGGGGT,0.81
21,ATAGACATGACTTACTTGGCATCATCAAAC,-1
22,TATAGTGCTCCCTCCTGTGGTAATAAGTTG,1.68
23,AGCTAATCTGACCAAGTGAACTGTGACCTG,4.22
24,ATTGGCAGGCATTCCACACTGCAGGCTCTG,-1.15
25,ATCAGCATGGCTGCAGAGAACAGCAGCTAT,-0.939

row,Sequence,binding signal (log2 normalized intensity)
1,TAATTGCTTGTTGGTTCAAGAGAAATGTTA,1.5
2,TGGAATAGATCAGCTTTCAACACTCTGGAT,-0.269
3,ATCCTAGTCTTTGCCCCACTGCAAGTTGAC,2.34
4,AAGGCAAACACTCAAGGTCCAAACAGGGTA,-0.735
5,CCAAATCTAGCATCAGTGAGTCAAGAGATA,-0.577
6,GACAGCTGGGCCCTGCCTGACCTGCCCTTT,4.42
7,AGCCTCACTTGCTGATAAGGCAGACCAGGG,-1.06
8,CATCTGTCATTCCCTCACTCTAGAACCTTC,1.14
9,CTGTGAAGACTGCAGCAAAGTCCTCCAACT,-1.19
10,ATGCATGTCCCTCCTCAACCTCTCCAATGC,1.93
11,CTCCTGCTATCAGTACTGAAACATGCCTAT,-1.02
12,CCCTCTCCCCACCATTAACCCTACAGTCCT,3.15
13,TCTCAGGTTGTGTTTGCAGTGAGTAACCTT,2.28
14,ACAAAATTAAGTGATTTGCCCAATATAATA,-1.19
15,AGGCCCTCGGCATCATGCCCTTTGGCCCCC,7.28
16,CCTGCAGGTGAAACTCCAGGCTCCAAGGGT,-1.17
17,TGGAATTTGCAAGTGGAGATTTCAGCCGCT,-1.2
18,CCTCCATTTCACAAATGAGGGGACAAAGTT,1.02
19,TGTTTCAGAGTAGCCTATCAGAAGAATCTG,-0.645
20,TCACTGGTGATGTGAACCTCGATCCCTGGC,2.81
21,GATTACCTAAACAGCAACTGTAGTGCATAG,-1.1
22,CAAACAAAAGGGACAAAGGTGAGTGCAACC,0.534
23,ACCTGCTTGTTTTCCCAACAGGTGTTAAAA,0.0617
24,AAGGTGTATGTGGACTTTCAACTGCAGGGG,3.47
25,AACTTTATCAAGACTGCAGCCAGGGGCGTA,-1.07

row,Sequence,binding signal (log2 normalized intensity)
1,CGCGCAGCCAATAGGCGAGGACGCAGTCCC,-0.78
2,AAGCATAACTGTATAACCTGGAACTGAAAG,-0.938
3,ACCCGGCAGGCGGGAAAGAAGGCTGGTTTA,-1.12
4,TTCCGGATAGCCAAATAGCCTGGTCACTCA,-1.22
5,ACTTAGAATTTCATTTTGCTCTTTGTTCAG,2.74
6,AAATATTTGGTGAATAAACAAATAATGGCT,-1.22
7,CTGATGCCCTTTGGATTTAGGCAGTTTTTG,2.42
8,GTCTAACCGCAGCAAGACACTTCCAGCCAA,-1.18
9,GGTAATCACCAAACTTCACAATGGGCCCCA,-1.17
10,AAATGTGAATGGACTCTGCCCTTAGCAGTG,4.37
11,CAGTATTGATGTGAGGGTAGGAGCCTAGCT,-1.13
12,ATAATGCCAGGCAGGAAGGAGCCTGCTTTG,-1.15
13,GACCTTTCTTTATGGACCTTGTCCCTGGAT,4.55
14,CACCAGAGGGAACGCCCGACGCGAAGGCAG,-0.973
15,AACTGTCCAGGCTGCACAGTGGGGAGGGCA,-1.15
16,AATAGGGGCTGGGTAAAATGAGAATGAGAC,-1.09
17,CACTTCTCTCTCCAAGGCACAGAGAAGAAT,-1.07
18,TTGCAGTGGCAAGGCAAAAGAGACAGGACT,-1.1
19,ATAGCTGTTCATTAGACTCAGGGAACTCCC,0.649
20,CAAACAGACCTCCCCCAACTTACTTAGTGG,1.85
21,AGTGGCAACCCTTGACCCCAGTAACAAAGG,4.33
22,GTTAGGAAACACTCTGTTTGTAAAGTCTAC,0.577
23,GCAATTACTCAATAACCACATGAATACACA,0.0621
24,AGGCTCCCTGCTGCGGAGAGTTCCCTTGGA,-1.12
25,GGGGTCTAGAACAGCTCCTTTGAAGCTTCG,-1.08

row,Sequence,binding signal (log2 normalized intensity)
1,GACCGGTTCCGCGGTCCGCAGCGCTGGTGG,-1.18
2,AAACTGAGATCTAAGCGATAAGGAGGAAGG,-1.25
3,GCAGGCAGGGACTTTGGCCCACGGTCCTTT,2.39
4,CAGTGAGACAGAAGTAAAACAGGTAGAGAG,-1.27
5,ATATACTGTGTATACAAAGATCAGTGTACT,0.786
6,ATCTCAAATAGCTGGGTCTCACTCTGACCC,3.32
7,CTGCTGGTTTTTGTCAAAGATAGTTGTAGT,2.1
8,TGGGGACGCCCACTGCTTTGTTCCCTGGCT,-1.13
9,CAGGGTCGGAATGTCTGGGCAAAGGGGAGG,-1.09
10,CTTCAGCCTCCCGAGTAGTTGGGTCAACAG,1.82
11,GTAGGAAGGCTTTGAAGTCTGGTGGCAAGT,0.622
12,CTCTCCTGAGGCAAGTCTCTTTTAGGCTGT,1.48
13,TCACAGGAATGTTGGCAGCATCGTGTTGGG,1.03
14,CACTAATTAACTGAGCCTCAGAACCATTTG,-0.908
15,CATACTCAAAGAATTTAACACCAGATAAAC,-1.13
16,GAAGCTGGTAGCATGGCTCAGTCCAAGTCC,-0.166
17,GCCTTTAGGGCCCCCTGTGATTACTTCCAC,1.84
18,AGCGGGGGACCGAGAGCCGCCGCCGTGGGA,-1.08
19,TGGTGCAAATACCATCCCCAGAGCCGGAGC,3.27
20,TCCCCTGACAGCATGTTCGGCTGAGACCTG,0.132
21,TTGGTGACCAGTCTGCCTGACTCCAGAGTC,-0.936
22,AAATACACAGGTAAACATTTGCCTTTAGGG,-0.512
23,GAATATTCAGATATTCCTGGAATGACAAGA,0.642
24,AAAGGTCATTTCTGCTTGCAACCAAAGGAG,1.52
25,AAGCAGGACAGCAGAGTGGAGGCCAGCGCC,-1.09

row,Sequence,binding signal (log2 normalized intensity)
1,GTCCAGACACAAAGAGACAAAGCTTTGAAG,-1.1
2,AGAGTTAGGGCCTTGCTATGGAGTGGACTT,3.25
3,GTGTTCCAGAGCCTCCAAAGTCCGCTTGCC,0.799
4,TAGCTTGGTGCAGGGGCGGGGCCGCGCGTC,-1.12
5,CGTATTATCTTATCTCCTCTGTAGGGCAGC,1.63
6,CTGCTCTGTTTTCTTTCGGTCACCCACACA,1.65
7,TCTCTTCTTCCCCTCCTTCAGGTCAAGAGG,2.58
8,GTCCATCCTGTCTCACCAGACCAAGAGCTT,-0.911
9,AGGAAGCATCCTATAGGCCTATAATTAGGT,-1.06
10,TCCTCTGGATACCCTTCCCCCCAAGGCTTC,5.27
11,TAGGCCAGGCGGAGCACACCAGGCCCTCGG,-0.933
12,AATGATCTTGGCTGCTTTAGACATGAGATA,-0.202
13,CTGCCTCTTCAGGAGGCACTGATAAGCGTA,-1.1
14,GGACAGGAGCTCATACCTCTTACCAGATAG,-1.14
15,TCACAATGGGGCATGACTTGTTATCACCTG,0.82
16,AGAGCAGGGCCCGAGGCCTTGAGCATACAA,-1.04
17,CCTTTGTCTCCAGGCAAACTACAGTTTCTG,-0.0604
18,AGTTGTTGTGAGAGTGAGGTGACTTGTCCT,1.86
19,AACCTCCTCCAGGTTCTCATACCTTCTGCT,-1.13
20,TAAGATTTGGAAAATATTGCCAATATCTGC,-1.21
21,GAAGAAAACAATGACCTCTGCACCCTTCCC,4.1
22,CTGCTGGCTGAGCATCACCAGTGCAGCTGA,-1.01
23,TCTGGTAAATTTCTAACACTCCCCAGGACA,2.9
24,TCTAGAAGAGGTTAAAGACCTTTGGGTAGG,2.02
25,CATGTGGGTCCAAAGAACATTGCATTCCTT,1.55

row,Sequence,binding signal (log2 normalized intensity)
1,CTGCAGAGGGACTGACTCCCTTTTCAACAA,-1.18
2,AACCAAAGGATTATTACATGTTTACCCACA,0.244
3,GGGCAAATGGAAGAATCACAGTGTGGGGCA,-0.192
4,AGTTTTCTCTGTCCCAAGAGCAAGAAGGTC,1.81
5,TCAGAAAACCCACGCCCACCCTATTGATGC,2.81
6,ACCCAGGTATGACAAGCATGCACTGGGGTT,-0.879
7,TGGTAAGTGCAAGGCCCAGCTAGAAGCAGT,-1.06
8,CAGGATCCAAGATCCAACTCTGAAGATTCA,-1.16
9,ACTGATAAGGTTCCAGCAAAGAGATTAGGA,-1.03
10,CTTTCTTTGTCTGTGTAGACTCATCTGGTG,1.87
11,ACATTGTCCATCACCTGGCTCTGAAAAACA,-1.22
12,AGAGGTGAGAGCAGAATGAGCAAGGTGGGT,0.0131
13,TTCTGCTTCTTCTCATTCTTGGAATAAGCA,-1.11
14,AGCTTCAAAGGACAGGCTGACTATCACTGG,-1.12
15,CGGTTCCGGGCGGCAGCACAAGGCGGTAGC,-1.14
16,ACACAGCTTGGAGCTCCTTGTGAGCAGGAT,-1.07
17,AAGGGTAAAGATTATGAACTAATTTGTCTT,-0.796
18,TCGGTTTTCAAATGAACCCGGCAGGCGGGA,1.82
19,AGATGTAAACATCATTCACGTGCCTGAGAT,-1.12
20,CATACAGGCCAGCTGTCTGGTTTGACCTTA,5.34
